Results from PubChem BioAssay AID1460 (National Center for Advancing Translational Sciences (NCATS), 2008).
“And” between values parts separate entries of the source, which are not always exact repeats. Equal values may be shown once. About 5,800 (2.1%) of roughly 270,000 compounds were called active. This list was built around the results that the source calls inconclusive (neither active nor inactive); the mix of calls is not that of the screen. Calls follow the shape of the dose curve; as a rule, active = well fitted inhibition curve with a large enough effect; inconclusive = small, poorly fitted or top-dose-only effect; inactive = flat fitted curve, though single readings scatter. Potencies of inconclusive entries are doubtful fits and often do not repeat.

The molecules below were run against Microtubule-associated protein tau (Homo sapiens) (UniProt P10636) (assay: qHTS for Inhibitors of Tau Fibril Formation, Thioflavin T Binding). Details: recombinant tau K18 P301L (four-repeat tau fragment), heparin-induced fibrillization, ThT fluorescence; series mostly up to 57.4 µM; activity, negative = inhibition: at the top concentration.
How it was run: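 Tau K18 P301L fragment (15 uM unlabeled plus 0.24 uM Alexa 594-labeled) in 100 mM sodium acetate pH 7 with compound, fibrillization induced by 20 uM heparin for 6 hr at 37 C. Thioflavin T (30 uM) added, fluorescence read after 1 hr (ex 450, em 510 nm).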
% is scaled to controls: 0 for no effect and ±100 for the full control effect; potency is read from the fitted curve at half-maximal effect; tags tell the direction and shape of the fitted curve.
Also: nearly all actives have a fitted effect of over 55% in size.

Sequence of UniProt P10636 (P10636 whole entry, looked up, the tested form may be a part): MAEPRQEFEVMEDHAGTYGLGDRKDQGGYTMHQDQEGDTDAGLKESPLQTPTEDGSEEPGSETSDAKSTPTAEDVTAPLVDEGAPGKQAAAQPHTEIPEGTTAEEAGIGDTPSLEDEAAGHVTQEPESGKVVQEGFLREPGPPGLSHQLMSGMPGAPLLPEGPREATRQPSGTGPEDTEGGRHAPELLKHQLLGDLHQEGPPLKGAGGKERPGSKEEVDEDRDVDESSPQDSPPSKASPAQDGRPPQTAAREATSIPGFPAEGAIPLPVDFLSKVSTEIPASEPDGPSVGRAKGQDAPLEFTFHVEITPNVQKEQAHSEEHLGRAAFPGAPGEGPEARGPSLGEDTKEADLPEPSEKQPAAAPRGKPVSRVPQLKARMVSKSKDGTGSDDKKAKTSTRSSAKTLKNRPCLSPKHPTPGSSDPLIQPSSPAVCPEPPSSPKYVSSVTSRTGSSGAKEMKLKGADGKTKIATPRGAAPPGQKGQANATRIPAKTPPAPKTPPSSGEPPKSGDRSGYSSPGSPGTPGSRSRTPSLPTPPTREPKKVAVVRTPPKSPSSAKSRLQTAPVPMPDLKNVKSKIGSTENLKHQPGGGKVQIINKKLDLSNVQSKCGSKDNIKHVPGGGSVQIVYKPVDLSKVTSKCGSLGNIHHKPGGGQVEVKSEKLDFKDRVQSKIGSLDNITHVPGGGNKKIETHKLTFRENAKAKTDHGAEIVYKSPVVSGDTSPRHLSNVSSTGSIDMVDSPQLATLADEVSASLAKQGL

Row | SMILES | activity, negative = inhibition | Potency
1 | Cc1sc(NC(=O)CSc2nnc(C(C)C)n2C)c(C#N)c1C | inactive: 3.88% | –
2 | CCN(C(=O)c1cc2c(s1)-c1ccccc1OC2)c1cccc(C(F)(F)F)c1 | inactive: -10.1% | –
3 | COc1ccc(NC(=O)Nc2nnc(N(CC(C)C)CC(C)C)s2)c(OC)c1 | inactive: -5.84% | –
4 | CCOC(=O)c1ccccc1NC(=O)Nc1ccc(OC)c(OC)c1 | inactive: 6.76% | –
5 | Cc1nc(CNC(=O)CC2C(=O)NCCN2Cc2ccoc2)nc2c1CCCC2 (stereo not drawn) | – | inconclusive: 25.1 µM [inhibitor, single point]
6 | c1cc2c(cc1C1CCCCC1)c1c3n2CCN[C@H]3CCC1 | – | inconclusive: 31.6 µM [inhibitor, single point]
7 | Cc1cc2cc(CNC(=O)COc3ccccc3)ccc2n1C | inactive: -14.5% | –
8 | O=C(COC(=O)c1ccccc1Nc1cccc(C(F)(F)F)c1)NCc1ccco1 | – | inconclusive: 39.8 µM [inhibitor, single point]
9 | CCOC(=O)Cn1cnc2c(cnn2-c2ccc(Cl)cc2)c1=O | – | inconclusive: 35.5 µM [inhibitor, partial curve, poor fit]
10 | CCC(C)NC(=O)c1ccccc1NS(=O)(=O)c1ccc(OC)c(OC)c1 (stereo not drawn) | inactive: -1.92% | –
11 | Cc1ccc(/C=C/C(=O)c2ccc(N3CCOCC3)cc2)s1 | – | active: 7.08 µM
12 | CCCC(C)C(=O)Nc1nc(C)c(-c2csc(Nc3cc(OC)ccc3OC)n2)s1 (stereo not drawn) | – | inconclusive: 11.2 µM [inhibitor, partial curve]
13 | COc1cc(/C=C(/C#N)C(=O)Nc2ccc(Cl)cc2)ccc1Oc1nc(Cl)ncc1F | – | inconclusive: 0.251 µM [inhibitor, single point]
14 | CCOC(=O)C1=C(CC)Nc2ccccc2N=C1NC(=O)c1ccc(S(=O)(=O)N2CCCC2)cc1 | inactive: -3.79% | –
15 | Cc1ccccc1-c1nc(P(=O)(c2ccccc2)c2ccccc2)c(N2CCOCC2)o1 | – | inconclusive: 39.8 µM [inhibitor, single point]
16 | O=C(Nc1ccc(C(F)(F)F)cc1)c1csc(-c2ccncc2)n1 | – | inconclusive: 39.8 µM [inhibitor, single point]
17 | O=C(NC(=S)NNC(=O)c1ccccc1F)c1cccnc1 | inactive: -8.85% | –
18 | Cc1cc(C2C(=O)CC(=O)CC2c2ccccc2)on1 (stereo not drawn) | – | inconclusive: 17.8 µM [inhibitor, partial curve, poor fit]
19 | O=C(/C=C/c1ccc(Cl)cc1)Nc1ccc(N2CCCCC2)cc1 | – | inconclusive: 1 µM [inhibitor, full curve]
20 | CC1=Nc2cc([N+](=O)[O-])ccc2NC(C)(C)C1 | – | inconclusive: 3.55 µM [inhibitor, single point]
21 | Cc1sc2ncnc(Oc3ccc(-n4ccnc4)cc3)c2c1C | – | inconclusive: 20 µM [inhibitor, partial curve]
22 | O=C1OCC2OC(O)C(O)C(O)C2OC(=O)c2cc(O)c(O)c(O)c2-c2c(O)c(O)c3oc(=O)c4c(c(O)c(O)c5oc(=O)c2c3c54)-c2c1cc(O)c(O)c2O (stereo not drawn) | – | active: 7.94 µM
23 | COc1ccc(C2=Nn3c([n+](C)c4ccccc43)SC2)cc1 | – | inconclusive: 25.1 µM [inhibitor, partial curve]

Row | SMILES | activity, negative = inhibition | Potency
24 | S=c1[nH]c(-c2ccccc2)cn1/N=C/c1ccccc1Br | – | inconclusive: 7.94 µM [inhibitor, partial curve]
25 | COc1ccc(-c2nc(CSCC(=O)N3CCN(c4ccccc4)CC3)c(C)o2)cc1 | – | inconclusive: 3.16 µM [inhibitor, partial curve, poor fit]
26 | COc1ccc(N2CCN(C(=O)CSCc3ccc(C)cc3)CC2)cc1 | – | inconclusive: 10 µM [inhibitor, partial curve]
27 | CN(C)C(=O)/N=N/C(=O)N(C)C | – | active: 7.94 µM
28 | CCOc1cc(S(=O)(=O)NCCc2c(C)[nH]c3ccc(C)cc23)ccc1Br | – | inconclusive: 3.16 µM [inhibitor, full curve]
29 | Cc1ccc(NC(=O)CCS(=O)(=O)c2ccc3c(c2)oc(=O)n3C)c(Br)c1 | inactive: -9.72% | –
30 | CC(=O)Nc1cccc(-c2csc(NCc3ccco3)n2)c1 | – | inconclusive: 15.8 µM [inhibitor, partial curve]
31 | CCOCC(=O)Nc1ccc(S(=O)(=O)N2CCOCC2)cc1 | inactive: -9.49% | –
32 | CCNC(=O)CC1SC(=Nc2cccc3ccccc23)N(C)C1=O (stereo not drawn) | inactive: -0.482% | –
33 | CN(C)c1oc(-c2ccccc2Cl)nc1P(=O)(c1ccccc1)c1ccccc1 | – | inconclusive: 31.6 µM [inhibitor, partial curve]
34 | CCc1sc(NC(=O)c2cc3ccccc3oc2=O)nc1-c1cccs1 | – | inconclusive: 1.78 µM [inhibitor, full curve]
35 | COC(=O)c1c(-c2cccs2)csc1NC(=O)c1ccc(C(C)C)cc1 | – | inconclusive: 25.1 µM [inhibitor, single point]
36 | CC(C)(C)C1CCc2c(sc(NC(=O)CSc3nnc(-c4ccccc4)o3)c2C#N)C1 (stereo not drawn) | – | inconclusive: 12.6 µM [inhibitor, partial curve]
37 | CCOCCCn1c(=N)c(S(=O)(=O)c2ccc(Cl)cc2)cc2c(=O)n3cccc(C)c3nc21 | – | inconclusive: 39.8 µM [inhibitor, single point]
38 | COC(=O)c1ccccc1NC(=O)CCS(=O)(=O)c1nc(-c2ccc3c(c2)OCO3)cc(C(F)(F)F)n1 | inactive: -10% | –
39 | O=c1c(Cl)c(N/N=C/c2ccc(Br)cc2)cnn1-c1ccccc1 | – | inconclusive: 31.6 µM [inhibitor, single point]
40 | Cc1cc(C)n2nc(C(=O)N/N=C/c3c4ccccc4cc4ccccc34)nc2n1 | – | inconclusive: 22.4 µM [inhibitor, partial curve]
41 | N#C/C(=C\c1ccc([N+](=O)[O-])o1)c1nc2ccccc2[nH]1 | – | active: 7.08 µM
42 | CCc1nc(N2CCCC(C)C2)c2oc3ccccc3c2n1 (stereo not drawn) | – | inconclusive: 22.4 µM [inhibitor, single point]
43 | CC(C)(C)OC(=O)N1CCC(c2c(C(=O)Nc3ccc4c(c3)OCO4)cnn2-c2ccccc2)CC1 | – | inconclusive: 22.4 µM [inhibitor, partial curve, poor fit]
44 | CCCCC(=O)NNC(=S)NC(=O)c1ccc(C)cc1 | inactive: -9.07% | –
45 | CCOC(=O)N1CCN(C(=O)c2ccc3c(c2)N(Cc2ccc(C)cc2)CCS3)CC1 | – | inconclusive: 15.8 µM [inhibitor, partial curve]
46 | COc1ccc2c(c1)CCC1C2CC[C@@]2(C)C(O)CCC12 (stereo partly drawn) | inactive: -18.1% | –

Row | SMILES | activity, negative = inhibition | Potency
47 | CCOC(=O)N1CCN(C(=O)c2cc3c(=O)[nH]c4ccccc4c3s2)CC1 | – | inconclusive: 17.8 µM [inhibitor, partial curve]
48 | O=C(COc1ccccc1)OCc1cc(=O)n2nc(-c3cccs3)sc2n1 | inactive: -16.6% | –
49 | Clc1ccc(/C=N/NC2=Nc3cccc4cccc2c34)cc1 | – | active: 2.82 µM
50 | CCOc1ccc(C2c3c(oc4ccccc4c3=O)C(=O)N2c2ccc(C)cn2)cc1OC (stereo not drawn) | – | inconclusive: 25.1 µM [inhibitor, single point]
51 | COC(=O)c1cccc(CN2C(=O)SC(Nc3ccc(C)cc3)C2=O)c1 (stereo not drawn) | – | inactive and inconclusive: 12.6 µM [inhibitor, partial curve]
52 | S=c1[nH]nc(-c2ccccc2)n1/N=C/c1cccs1 | inactive: -12% | –
53 | Cc1ccc(-c2nc(N)sc2CC(=O)OCC(=O)NCC2CCCO2)cc1 (stereo not drawn) | inactive: 3.65% | –
54 | CCOc1ccc(-c2cc(C(=O)NCCc3ccc(OC)c(OC)c3)[nH]n2)cc1 | – | inconclusive: 0.447 µM [inhibitor, full curve]
55 | O=C(N/N=C\c1cccnc1)c1cc(-c2ccc(Cl)s2)[nH]n1 | – | inconclusive: 0.158 µM [inhibitor, full curve]
56 | CC(C)Cn1c(-c2ccco2)csc1=Nc1cccnc1 | – | inconclusive: 31.6 µM [inhibitor, partial curve]
57 | COC(=O)c1nn(-c2ccccc2)c(Sc2ccc(Br)cc2)c1/C=N/O | – | inconclusive: 25.1 µM [inhibitor, single point]
58 | COC(=O)c1ccc(NC(=O)CCc2c(C)nn(-c3ccc(N4CCCCC4)nn3)c2C)cc1 | – | inconclusive: 3.98 µM [inhibitor, full curve, poor fit]
59 | CC(C)(C)c1ccc(S(=O)(=O)N2CCC(CO)(CC3CCCCO3)CC2)cc1 (stereo not drawn) | – | inconclusive: 4.47 µM [inhibitor, partial curve]
60 | O=C1CCCc2nc(N3CCc4ccccc43)ncc21 | – | inconclusive: 22.4 µM [inhibitor, partial curve, poor fit]
61 | COc1ccccc1NC(=O)C(=O)NCC(c1cccnc1)N1CCc2ccccc2C1 (stereo not drawn) | – | inconclusive: 5.62 µM [inhibitor, partial curve]
62 | CCc1nn2cc(C(=O)c3ccccc3O)cnc2c1-c1ccc(F)cc1 | – | inconclusive: 15.8 µM [inhibitor, single point]
63 | COc1ccc(OCC(=O)Nc2ccc3c(c2)nc(CN2CCN(C(C)=O)CC2)n3C)cc1 | – | inconclusive: 14.1 µM [inhibitor, partial curve]
64 | COc1ccc(N2CCN(C(=O)C3CCN(c4nc5ccc(C)cc5[nH]4)CC3)CC2)cc1 | – | inconclusive: 20 µM [inhibitor, single point]
65 | CCc1nnc(NC(=O)c2sc3nc4c(cc3c2N)CCCCC4)s1 | – | active: 1.41 µM
66 | Cc1ccc(S(=O)(=O)N(CC(=O)NCCC2=CCCCC2)Cc2ccccc2)cc1 | – | inconclusive: 17.8 µM [inhibitor, partial curve]
67 | O=C(Cc1csc(Nc2nc(=S)[nH]c3ccccc23)n1)NCCCN1CCN(c2ccccc2F)CC1 | – | inconclusive: 3.98 µM [inhibitor, partial curve]
68 | Cc1ccc(C(=O)NNc2c3ccccc3nc3ccccc23)cc1 | – | active: 3.16 µM
